Some of the results follow. Further columns of the screen follow, without active or inactive calls. The list favours compounds with an active or inconclusive main result.

One test in a line: qHTS Assay for Lipid Storage Modulators (AID 1519). The settings on record: Drosophila S3 cells, BODIPY lipid droplet/cell ratio, laser cytometry; measured here: cell count channel max response; cells loaded with oleic acid. In outline:
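Cells seeded at 5,000 per well were treated with compounds over a concentration series and loaded with oleic acid (400 uM, as added). Lipid droplet fluorescence (488 nm excitation, 500-530 nm channel) was read by laser-scanning cytometry and normalized to 20 uM Triacsin C.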
(qHTS replaces the single test concentration by a dilution series.)
With `CC(C)NCC(O)COc1ccc(COCCOC(C)C)cc1` (stereo not drawn), the max response turned out to be 58.2%.

Regarding `CN[C@H](CC(C)C)C(=O)N[C@H]1C(=O)N[C@@H](CC(N)=O)C(=O)N[C@H]2C(=O)N[C@H]3C(=O)N[C@H](C(=O)N[C@H](C(=O)O)c4cc(O)cc(O)c4-c4cc3ccc4O)[C@H](O)c3ccc(c(Cl)c3)Oc3cc2cc(c3O[C@@H]2O[C@H](CO)[C@@H](O)[C@H](O)[C@H]2O[C@H]2C[C@](C)(N)[C@H](O)[C@H](C)O2)Oc2ccc(cc2Cl)[C@H]1O`, the max response is 44.9%.

As to `CC1COc2c(N3CCN(C)CC3)c(F)cc3c(=O)c(C(=O)O)cn1c23` (stereo not drawn), the max response worked out at 34.6%.

For the compound `Cc1[nH]c(=O)c(C#N)cc1-c1ccncc1`, the max response came out at 38%.

Regarding `Cc1cccc(CN2CCN(C(c3ccccc3)c3ccc(Cl)cc3)CC2)c1` (stereo not drawn), the max response was -15.6%.

With `Clc1ccccc1C(c1ccccc1)(c1ccccc1)n1ccnc1`, the max response was found to be 52.6%.

On to `COc1ccccc1CNCCCCCCNCCCCCCCCNCCCCCCNCc1ccccc1OC`, for which the max response came out at 64.6%.

For `CCN(CC)CCCC(C)Nc1ccnc2cc(Cl)ccc12` (stereo not drawn), the max response came to 47.7%.

Turning to `CCC1(c2ccccc2)C(=O)NCNC1=O`, the max response was found to be 50.9%.

Turning to `CN(C)CCC=C1c2ccccc2C=Cc2ccccc21`, the max response worked out at 57.4%.

As for `NC(=NCc1ccccc1)NC(=O)c1nc(Cl)c(N)nc1N`, the max response was 58.6%.

Turning to `OC[C@H]1O[C@@H](n2cnc3c(Nc4ccccc4)ncnc32)[C@H](O)[C@H]1O`, the max response was found to be 32.9%.

Regarding `COC(=O)[C@@H](N)Cc1ccc(O)c(O)c1`, the max response turned out to be 65.6%.

`Nc1nc(OCc2ccccc2)c2[nH]cnc2n1`: the max response came to 91.5%.

`Fc1ccc(C(OCCCc2cnc[nH]2)c2ccc(F)cc2)cc1`: the max response was found to be 47.5%.

For the compound `COc1ccc(CCN(C)CCCOc2ccc(S(=O)(=O)c3[nH]c4ccccc4c3C(C)C)cc2)cc1OC`, the max response was 29.5%.

Take `NC(=O)c1cccc(N)c1`: the max response was 39.7%.

Regarding `NC(CO)C(=O)NNCc1ccc(O)c(O)c1O` (stereo not drawn), the max response was 69%.

With `CN(C)CC[C@@H](c1ccc(Br)cc1)c1ccccn1`, the max response was found to be 55%.

In the case of `CCCCS(=N)(=O)CC[C@H](N)C(=O)O` (stereo partly drawn), the max response worked out at 35.2%.

On to `CSc1nc(N)c2ncn([C@@H]3O[C@H](COP(=O)(O)OP(=O)(O)OP(=O)(O)O)[C@H](O)[C@H]3O)c2n1`, for which the max response came out at 68.7%.

Take `c1ccc2c(c1)CC(N1CCN(c3cccc4c3OCCO4)CC1)C2`: the max response amounted to 53.5%.

Regarding `CC(O)[C@@H](O)[C@H]1CNc2nc(N)[nH]c(=O)c2N1` (stereo partly drawn), the max response is -36.2%.

As for `C[C@]12CCC(=O)C=C1CC[C@@H]1[C@@H]2[C@@H](O)C[C@@]2(C)[C@H]1CC[C@]2(O)C(=O)COC(=O)CCC(=O)O`, the max response was determined as 61.6%.

For the compound `Cc1nc2c([nH]1)c(=O)n(C)c(=O)n2Cc1ccco1`, the max response is 44.1%.

Regarding `CC(=O)Oc1ccccc1C(=O)O`, the max response was 44.3%.

On to `Oc1cc(O)c2c(c1)O[C@H](c1ccc(O)c(O)c1)[C@@H](O)C2`, for which the max response stood at 55.7%.

With `COc1nc(C)nc(Cl)c1NC1=NCCN1`, the max response is 44.9%.

Take `CCOC(=O)C12CC1/C(=N/O)c1ccccc1O2` (stereo not drawn): the max response was found to be 31%.

`O=C(O)/C=C/c1ccc(O)c(O)c1`: the max response came to 49.9%.

As for `COc1cccc(-c2cc(=O)c3ccccc3o2)c1N`, the max response came to 93.1%.

On to `CN(C)C(N)=NCCC[C@H](N)C(=O)O`, for which the max response turned out to be 48.3%.

For the compound `CCc1c(C)[nH]c2c1C(=O)C(CN1CCOCC1)CC2` (stereo not drawn), the max response is 45.4%.

`CCc1cccc(N(C)C(N)=Nc2cccc3ccccc23)c1`: the max response stood at 46.3%.

For `Oc1ccc(C2CNCCc3c2cc(O)c(O)c3Cl)cc1` (stereo not drawn), the max response was 69.3%.

As to `CC(/C=C/c1cccc(Oc2ccc(F)cc2)c1)N(O)C(N)=O` (stereo not drawn), the max response worked out at 36.5%.

With `CC(COc1ccccc1)N(CCCl)Cc1ccccc1` (stereo not drawn), the max response worked out at 47.9%.

With `CC(C)COCC(CN(Cc1ccccc1)c1ccccc1)N1CCCC1` (stereo not drawn), the max response is 52.9%.

On to `CCCCNc1ccc(C(=O)OCCN(C)C)cc1`, for which the max response is -19.2%.

Staying with this test, now noted: Drosophila S3 cells, BODIPY lipid droplet/cell ratio, laser cytometry; measured here: lipid channel max response; cells loaded with oleic acid.
As for `CC(C)NCC(O)COc1ccc(COCCOC(C)C)cc1` (stereo not drawn), the max response worked out at 60.6%.

`CN[C@H](CC(C)C)C(=O)N[C@H]1C(=O)N[C@@H](CC(N)=O)C(=O)N[C@H]2C(=O)N[C@H]3C(=O)N[C@H](C(=O)N[C@H](C(=O)O)c4cc(O)cc(O)c4-c4cc3ccc4O)[C@H](O)c3ccc(c(Cl)c3)Oc3cc2cc(c3O[C@@H]2O[C@H](CO)[C@@H](O)[C@H](O)[C@H]2O[C@H]2C[C@](C)(N)[C@H](O)[C@H](C)O2)Oc2ccc(cc2Cl)[C@H]1O`: the max response stood at 47.3%.

In the case of `CC1COc2c(N3CCN(C)CC3)c(F)cc3c(=O)c(C(=O)O)cn1c23` (stereo not drawn), the max response turned out to be 36.3%.

As for `Cc1[nH]c(=O)c(C#N)cc1-c1ccncc1`, the max response was determined as 51.7%.

Take `Cc1cccc(CN2CCN(C(c3ccccc3)c3ccc(Cl)cc3)CC2)c1` (stereo not drawn): the max response is -80.1%.

As to `Clc1ccccc1C(c1ccccc1)(c1ccccc1)n1ccnc1`, the max response turned out to be 50.8%.

Turning to `COc1ccccc1CNCCCCCCNCCCCCCCCNCCCCCCNCc1ccccc1OC`, the max response worked out at 67%.

Consider `CCN(CC)CCCC(C)Nc1ccnc2cc(Cl)ccc12` (stereo not drawn), for which the max response amounted to 46.5%.

As for `CCC1(c2ccccc2)C(=O)NCNC1=O`, the max response was determined as 50.3%.

`CN(C)CCC=C1c2ccccc2C=Cc2ccccc21`: the max response worked out at 59%.

With `NC(=NCc1ccccc1)NC(=O)c1nc(Cl)c(N)nc1N`, the max response amounted to 59.2%.

Consider `OC[C@H]1O[C@@H](n2cnc3c(Nc4ccccc4)ncnc32)[C@H](O)[C@H]1O`, for which the max response was 34.9%.

Take `COC(=O)[C@@H](N)Cc1ccc(O)c(O)c1`: the max response was determined as 67.9%.

As for `Nc1nc(OCc2ccccc2)c2[nH]cnc2n1`, the max response turned out to be 97.8%.

`Fc1ccc(C(OCCCc2cnc[nH]2)c2ccc(F)cc2)cc1`: the max response amounted to 51.1%.

As for `COc1ccc(CCN(C)CCCOc2ccc(S(=O)(=O)c3[nH]c4ccccc4c3C(C)C)cc2)cc1OC`, the max response was -29.6%.

As for `NC(=O)c1cccc(N)c1`, the max response stood at 40.2%.

`NC(CO)C(=O)NNCc1ccc(O)c(O)c1O` (stereo not drawn): the max response came out at 71.4%.

For the compound `CN(C)CC[C@@H](c1ccc(Br)cc1)c1ccccn1`, the max response is 54%.

For the compound `CCCCS(=N)(=O)CC[C@H](N)C(=O)O` (stereo partly drawn), the max response came out at 36.3%.

For `CSc1nc(N)c2ncn([C@@H]3O[C@H](COP(=O)(O)OP(=O)(O)OP(=O)(O)O)[C@H](O)[C@H]3O)c2n1`, the max response amounted to 70.1%.

For the compound `c1ccc2c(c1)CC(N1CCN(c3cccc4c3OCCO4)CC1)C2`, the max response came to 57%.

With `CC(O)[C@@H](O)[C@H]1CNc2nc(N)[nH]c(=O)c2N1` (stereo partly drawn), the max response is -37.1%.

For `C[C@]12CCC(=O)C=C1CC[C@@H]1[C@@H]2[C@@H](O)C[C@@]2(C)[C@H]1CC[C@]2(O)C(=O)COC(=O)CCC(=O)O`, the max response is 59.4%.

As to `Cc1nc2c([nH]1)c(=O)n(C)c(=O)n2Cc1ccco1`, the max response was found to be 44.8%.

Turning to `CC(=O)Oc1ccccc1C(=O)O`, the max response was determined as 46.8%.

For the compound `Oc1cc(O)c2c(c1)O[C@H](c1ccc(O)c(O)c1)[C@@H](O)C2`, the max response was found to be 55.9%.

Regarding `COc1nc(C)nc(Cl)c1NC1=NCCN1`, the max response came to 43.7%.

In the case of `CCOC(=O)C12CC1/C(=N/O)c1ccccc1O2` (stereo not drawn), the max response worked out at 30.6%.

As for `O=C(O)/C=C/c1ccc(O)c(O)c1`, the max response was determined as 48.8%.

On to `COc1cccc(-c2cc(=O)c3ccccc3o2)c1N`, for which the max response was 122%.

As for `CN(C)C(N)=NCCC[C@H](N)C(=O)O`, the max response turned out to be 51.9%.

For `CCc1c(C)[nH]c2c1C(=O)C(CN1CCOCC1)CC2` (stereo not drawn), the max response is 45.6%.

`CCc1cccc(N(C)C(N)=Nc2cccc3ccccc23)c1`: the max response came out at 45.2%.

For `Oc1ccc(C2CNCCc3c2cc(O)c(O)c3Cl)cc1` (stereo not drawn), the max response came out at 70.6%.

Regarding `CC(/C=C/c1cccc(Oc2ccc(F)cc2)c1)N(O)C(N)=O` (stereo not drawn), the max response is 37.8%.

Turning to `CC(COc1ccccc1)N(CCCl)Cc1ccccc1` (stereo not drawn), the max response was found to be 49.6%.

In the case of `CC(C)COCC(CN(Cc1ccccc1)c1ccccc1)N1CCCC1` (stereo not drawn), the max response turned out to be 55.2%.

As to `CCCCNc1ccc(C(=O)OCCN(C)C)cc1`, the max response is -16.5%.

The values are drawn from PubChem BioAssay (NCATS).
